Numbering of substitutions follows the chain as printed. The list shows a part of the results.
B1: chr8:95500983:95500984:-_ENSG00000164944_ENST00000437199|hu_hu|hu_hu_hu_mus_True|28_98 (ssRNA)
RNA: GGGAGUUCUACAGUCCGACGAUCAGAACACAUCUAUUCGUGUAAAGACCGUACAUGACGGCCUCUACCACUGCCUCCACUAACAAACUUUCCUCUCGAGCCUCCACCUGCCGCUAUUGUACUAGCCCAGGACGGUCCCAGGCCCAACAGAGGAUUGAGCAUCA
B2: chr11:21040623:21040624:+_ENSMUSG00000020134_ENSMUST00000093290|mus_mus|FALSE|FALSE (ssRNA)
RNA: GGGAGUUCUACAGUCCGACGAUCAAUGUGCACGGUGCUAGGCUUCACCCCAUUUGCCUUAGGUCUUUUAAACAAAGCAAACCUACUUUUCCUCCUUCCUCUAUCACCGUUUGGGAGAGAUCCAUUAUAUCCUAAGACAAUGAGCAACAGAGGAUUGAGCAUCA
B3: chr12:73312838:73312839:-_ENSMUSG00000021087_ENSMUST00000021497|mus_mus|motif|central (ssRNA)
RNA: GGGAGUUCUACAGUCCGACGAUCUCAGUAUCAAGUACAUAAGUGCAAAUAUCCAGAGUCUGUGAUUGAGUCCAUUAGGAACGGCAGAGGAAGUAAUACAAAUUGUAAUAAAGUCAACAUGCUGGCACCUUUAGUUACCAUACACAACAGAGGAUUGAGCAUCA
B4: chr6:38652254:38652255:-_ENSG00000124767_ENST00000373365|hu_hu|hu_hu_hu_mus_False|1_98 (ssRNA)
RNA: GGGAGUUCUACAGUCCGACGAUCCGAGAACUUCAUAAUGGGAAAAUCAAGCUUCUGCAGGAGGGUCAGUCCAAGAACCCUCGUAUAAAAAUCCAGGGACUUCUUAGGAUCCUUAAUUCUUAGCAUCGUUUGCUGCAAUAGAAACAACAGAGGAUUGAGCAUCA
B5: chr12:48362563:48362564:+_ENSG00000134291_ENST00000256686|hu_hu|hu_hu_hu_mus_False|38_108 (ssRNA)
RNA: GGGAGUUCUACAGUCCGACGAUCUCCGAAGGGUGAAUCGAUAGACCCUUGCGGGGGAAACUGUAAUCACUUUGUAUGGGGAAGGAAAAGAAACGCCAACACACUUUCAAAAAGCGGGGGUGGGGUGAGGCGGGAGGGGGAGGUCAACAGAGGAUUGAGCAUCA
B6: chr12:82822756:82822757:-_ENSMUSG00000042724_ENSMUST00000035987|mus_mus|motif|central (ssRNA)
RNA: GGGAGUUCUACAGUCCGACGAUCGGCUGAGGAGGAGAGGCAGUAGACGGAUUUGGCUGAAUGACUCUGUAGUGUCACCCGGAAAGGAAAGGAAGACCGGAGGGUGGGGACAUAUGUGCACACCCCUCUCUAUACAGUCAGAGCCAACAGAGGAUUGAGCAUCA
B7: 33283916_33284036_869_CDS_ENSG00000236104_ENST00000431845|human|control|control (ssRNA)
RNA: GGGAGUUCUACAGUCCGACGAUCCAGCAGCAGCUUUCCAGAUGUGGCCCCUCCACUGCCAACGACAGGGGCUGGGAAUACAGGGCCACCUCCUCGACGCUCCCCACUGCCCACUGCAGAAGCUGCAAAUGCCUCUUGGGAGGACAACAGAGGAUUGAGCAUCA
B8: chr9:119834795:119834796:+_ENSMUSG00000032512_ENSMUST00000036561|mus_hu|FALSE|FALSE (ssRNA)
RNA: GGGAGUUCUACAGUCCGACGAUCAUGUAUACUUCCAGGAUAUGAAUAUCAAAUUAACUCACUAUGAUCUCCCUUUAUUCUGACACCAUAAAUUUUAGGUAACAUUUGAAUGAAACUGAAAUUUCAUCAUGGUCUUAAAUUUUGCAACAGAGGAUUGAGCAUCA
B9: chr3:9412954:9412955:+_ENSG00000134077_ENST00000452837|hu_mus|hu_hu_hu_mus_False|38_58 (ssRNA)
RNA: GGGAGUUCUACAGUCCGACGAUCGGUUGAUAUCUCUUCUUUGAUGGCUGGAUUUUCAUAAUAGUCCAAGAUAUGUGAAUCUAAAGCGCUGCUGGCAAACUCUUUUUUACCAUCUUUCUCAUCUGCUUUGUCUCCUUGUCCACACAACAGAGGAUUGAGCAUCA
B10: chr1:166823625:166823626:+_ENSG00000143157_ENST00000367875|hu_hu|motif|central (ssRNA)
RNA: GGGAGUUCUACAGUCCGACGAUCUAUUGUUGGGGUCAGUUCCUAUCUACUAGGGAGUACAACUAUAUCUCAAUAUGUGCGGUAGUAAUUCUAGGGUAACAGCCAUUCUGCAAAAUAGUUGUACUGGGGCUCUGUUAGGCAUAGCAACAGAGGAUUGAGCAUCA
B11: 35660675_35660795_482_CDS_ENSG00000100281_ENST00000216106|human|control|control (ssRNA)
RNA: GGGAGUUCUACAGUCCGACGAUCUGAAGAGCCAGAGGAUUUCUCCCCAGUCUUUUUGGAGGGCUUGGAGCCUGCUGCCAGUGGGGAAGUGAUAGCUUUCAACAGGUCCAUAGCUGUAUCAGUAGACUGUGGGCUGGACUUUUUCAACAGAGGAUUGAGCAUCA
B12: chr2:158287933:158287934:+_ENSMUSG00000027652_ENSMUST00000141497|mus_mus|FALSE|FALSE (ssRNA)
RNA: GGGAGUUCUACAGUCCGACGAUCAAGCGGUUGCUCCAGCAUUGCCAGGAUGACACUGUUAUCCAAAACAAAGUACCGGAAACUAUGCUUGUUUAUGGUUGGCAGCCUGGAGUAUUUGAUCAGAGUGGUCUCAUUCACCAGACUCAACAGAGGAUUGAGCAUCA
B13: chr15:52844276:52844277:-_ENSG00000128989_ENST00000249822|hu_hu|FALSE|FALSE (ssRNA)
RNA: GGGAGUUCUACAGUCCGACGAUCAUCCGGAGCUGCAGUAGGAAGUUGCUUGUUCUUCAUUUUUGCUUUAGCCAUGUUGUAAUCCCCAGAAUCAAAAUAUUUUUGCCCUUUCUGCAACCGUUUCCUUAAGAAAUCUGAACCUCCCAACAGAGGAUUGAGCAUCA
B14: 30009953_30010818_6256_CDS_ENSMUSG00000020315_ENSMUST00000011877|mouse|control|control (ssRNA)
RNA: GGGAGUUCUACAGUCCGACGAUCCUGUCUGCGCACUUCCAGUAGCUCCAACGUUGUCAGCCUUUCCAGAGCAGAGAAUCUCUCAUCCCAGGUCGCUGCAGACUUUUCAAACGCCUCAUGGCGCUUAAUAAGCUUCUCCACUUCCAACAGAGGAUUGAGCAUCA
B15: chr17:66526506:66526507:+_ENSG00000108946_ENST00000358598|hu_mus|FALSE|FALSE (ssRNA)
RNA: GGGAGUUCUACAGUCCGACGAUCGUACUGCUGGAUGUUCCGCUUGAGGAUGUCUGAGCACGGGCCAAGGACGCGUUCAAACCGAGGCCGGUCCAACUUAACGCACUUCAAAGGGCCCCGGGCAACCACAGUGGCAGCCCGAGGCAACAGAGGAUUGAGCAUCA
B16: chr5:136384420:136384421:-_ENSMUSG00000051391_ENSMUST00000055808|mus_mus|FALSE|FALSE (ssRNA)
RNA: GGGAGUUCUACAGUCCGACGAUCUACGACGGCUACAUAAUGACUCACAUUCAUGAAUAUUCCAUCACUGAGGAAACUGCUAAGAAUGGUCCGUGUGCGAAAUAAUUCCUUAGCGAAACACGGAGUUGGGGGGGAAAAAAUCACCAACAGAGGAUUGAGCAUCA
B17: chr6:38652254:38652255:-_ENSG00000124767_ENST00000373365|hu_hu|hu_hu_hu_mus_False|1_1 (ssRNA)
RNA: B4 RNA with A37G, U38C, G39A, A42G, A45G
B18: chr5:6374476:6374477:-_ENSG00000133398_ENST00000255764|hu_hu|motif|central (ssRNA)
RNA: GGGAGUUCUACAGUCCGACGAUCCAGGCUUUUAAAUUUCUUCAUGGUGUCGAUCUUGCCUUUAACUUGCUCAUUUUUAGCGGGAGCCCUCUCCAGGCACUCUUUGGUGUAGAGCUGGGGAUUUCGACCUUGAUCUAUAUAUUCCAACAGAGGAUUGAGCAUCA
B19: chr1:109605286:109605287:-_ENSG00000197780_ENST00000461096|hu_mus|hu_hu_hu_mus_True|28_28 (ssRNA)
RNA: GGGAGUUCUACAGUCCGACGAUCAAGUUUCAGAGUAACAUUCAGUAACCUCUUUAAAUGCAAUUAUCCUUAUUAUAAGCUAAGCAGAAUAAUAAUUUAAUACCGUAAGUAAAUACAACACAAAGCCUGAACCGCGAAAAUGGUCAACAGAGGAUUGAGCAUCA
B20: chr22:19452774:19452775:-_ENSG00000070010_ENST00000399523|hu_hu|hu_hu_hu_mus_False|68_68 (ssRNA)
RNA: GGGAGUUCUACAGUCCGACGAUCCUUCUCAUUGUAGUUGAUAGCAAUCACAUCUCCAGUCGUCAGACAGGCAAAGUUUCUCAAUGCAUUUUCUAAUACCGCUUUAGGGUUGGUAAUAUCCAGGAAGUCUGGGCUCUGAGGCUGCAACAGAGGAUUGAGCAUCA
B21: 37000718_37000838_210_5pUTR_ENSMUSG00000040565_ENSMUST00000099494|mouse|control|control (ssRNA)
RNA: GGGAGUUCUACAGUCCGACGAUCGCCGCGCCGCUCCGGCGUUCGUUUCCCGAGCAGAGCGGCGCAGGCCCAGGCCGCCGGGCGCAGGGCGGCAGGCGGCGCGGCGUGGAGCGGCCCGCACGGGCCUUCCGGCAUGUGCCGGCCCAACAGAGGAUUGAGCAUCA
B22: chr5:130536139:130536140:+_ENSMUSG00000025532_ENSMUST00000026608|mus_mus|FALSE|FALSE (ssRNA)
RNA: GGGAGUUCUACAGUCCGACGAUCUCAGAUUGGAGUUUUCUCUUAUCUCCUAUUCCGCCAAGGACAUUCCUCUACAGUGAGCUAAGCUCUGGGUCAUUUCCCCUAGAGCAGCUGUGUGCAGCUCUGAGAGCUGGUGACCAUCUGCAACAGAGGAUUGAGCAUCA

What follows are binders tested against T1, UNK ZnF1-3 (human, UniProt Q9C0B0 31-174) (assay: nsRBNS (natural sequence RNA bind-n-seq); RBNS binding buffer (assumed for nsRBNS): 25 mM Tris pH 7.5, 150 mM KCl, 3 mM MgCl2, 0.01% Triton X-100, 500 ug/ml BSA, 20 U/ml SUPERase-In, 4 C; UNK is unkempt and MSI1 is Musashi-1; names of the RNAs are library labels; protein concentration not given here; high values mean tight binding).
T1 sequence: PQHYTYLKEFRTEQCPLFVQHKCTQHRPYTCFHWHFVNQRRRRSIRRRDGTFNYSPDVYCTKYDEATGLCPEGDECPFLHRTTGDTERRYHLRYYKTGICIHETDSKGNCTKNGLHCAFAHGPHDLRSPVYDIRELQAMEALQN
B1 was tested, and the binding signal was 1.02 enrichment R.
For B2, the binding signal was 0.714 enrichment R.
With B3 the binding signal was 1.8 enrichment R.
With B4 the binding signal was 1.04 enrichment R.
For B5, the binding signal was 2.52 enrichment R.
B6 gave a binding signal of 2.22 enrichment R.
Binder B7 has a binding signal of 0.638 enrichment R.
B8 was tested, and the binding signal was 0.988 enrichment R.
B9 gave a binding signal of 0.381 enrichment R.
B10 was tested, and the binding signal was 1.13 enrichment R.
Binder B11 has a binding signal of 1.39 enrichment R.
B12 showed a binding signal of 0.379 enrichment R.
With B13 the binding signal was 1.05 enrichment R.
B14 showed a binding signal of 0.814 enrichment R.
Work on B15 yielded a binding signal of 1.12 enrichment R.
Binder B16 has a binding signal of 1.5 enrichment R.
With B17 the binding signal was 0.767 enrichment R.
B18 was tested, and the binding signal was 0.609 enrichment R.
For B19, the binding signal was 0.963 enrichment R.
With B20 the binding signal was 0.958 enrichment R.
B21 gave a binding signal of 0.34 enrichment R.
Binder B22 has a binding signal of 0.374 enrichment R.
